# Experimental data reported in PubChem BioAssay (NCATS).
# Values joined by “and” are separate entries in the source; they are usually repeats but may differ in a detail not shown here. Equal values may be shown once. Inconclusive means that the source gave no clear call. Such entries were picked first, then a sample of the others. Potencies beside an inconclusive call are fits to weak or partial responses and may not hold up. Active and inactive are the calls of the source. Unless noted, the call rests on the fitted dose curve; in most records, active means well fitted curve in the direction sought with a large enough effect; inconclusive means small, poorly fitted or top-dose-only effect, or another doubt; inactive means no such curve, though single readings can be large; an effect the other way counts as inactive or inconclusive.
# What was measured:
# [1] = Confirmatory qHTS for small molecule stabilizers of the endoplasmic reticulum resident proteome: Secreted ER Calcium Modulated Protein (SERCaMP) assay (AID 1508628); settings: SERCaMP secreted luciferase ER calcium/proteostasis reporter; series mostly up to 76.3 µM; further: nearly all actives have a fitted effect of over 40% in size
# In short: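 We seeded SH-SY5Y-GLuc-SERCaMP cells, added compounds (three concentrations in the primary run, eleven up to 76.6 uM in confirmation), incubated 16 h, depleted ER calcium with thapsigargin, and read luciferase 4 h later.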
# [2] = Cell Viability qHTS for small molecule stabilizers of the endoplasmic reticulum resident proteome (AID 1508629); settings: cell viability counter-screen, 100 nM thapsigargin for final 4 h;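 further: compound exposure about 46 h in total before the viability read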;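 on max response: human SH-SY5Y neuroblastoma cells carrying the GLuc-SERCaMP reporter; on the % scale 0 is the no-effect control and ±100 the full control effect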
# [3] = Primary qHTS for small molecule stabilizers of the endoplasmic reticulum resident proteome: Secreted ER Calcium Modulated Protein (SERCaMP) assay (AID 1508630); settings: SH-SY5Y GLuc-SERCaMP (Gaussia luciferase released on ER calcium loss) secretion, thapsigargin, luminescence; activity change, negative = inhibition: at 38.4 µM (top of the series) unless noted
# In short: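 GLuc-SERCaMP-expressing SH-SY5Y cells, pretreated 16 h with compound, are challenged with thapsigargin to empty ER calcium stores; after 4 h, coelenterazine is added directly to the medium and luminescence is imaged.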
# [4] = Counterscreen qHTS for small molecule stabilizers of the endoplasmic reticulum resident proteome: GLuc-NoTag assay (AID 1508627); settings: Gaussia luciferase NoTag secretion counterscreen, luminescence, thapsigargin 100 nM for final 4 h; activity change, negative = inhibition: at 76.4 µM (top of the series);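 on activity change, negative = inhibition: SH-SY5Y cells given compound then 100 nM thapsigargin to empty ER calcium; 0% = thapsigargin alone and -100% = DMSO vehicle control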
# In short: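 Luminescence of Gaussia luciferase secreted into the medium (coelenterazine, 0.07x final, unlysed cells) was the read-out. Human SH-SY5Y neuroblastoma cells constitutively secreting untagged GLuc received compound for 19 h, then 100 nM thapsigargin for 4 h.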
# [5] = A High-Content qHTS Against Drug Library for the Identification of Small Molecules that Inhibit DYT1 Early Onset Primary Dystonia-Associated Cell Pathology (AID 1645839; calls by dose curve); settings: HEK293 Flp-In EGFP-delE TorsinA, punctate imaging, 48 h; series mostly up to 46.1 µM
# In short: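 In this high-content image screen, delE TorsinA mislocalization in inducible Flp-In 293 cells is scored as %pathology, with cell count serving as the counterscreen. Compound exposure lasts 48 h under tetracycline induction in reduced-serum medium.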
# [6] = biological target: Cytochrome P450 2D6 (Homo sapiens) (UniProt P10635); test: Cytochrome P450 family 2 subfamily D member 6 (CYP2D6) small molecule antagonists: luciferase biochemical (cell-free) qHTS assay (AID 1645840; active means well fitted curve in the direction sought with a large enough effect in the repeat runs; inconclusive means weak or mixed curves; inactive means no such curve, though single readings can be large; an effect the other way counts as inactive or inconclusive; further: nearly all actives have a fitted effect of over 55% in size; on activity change, negative = inhibition: on the % scale 0 is the no-effect control and ±100 the full control effect); settings: P450-Glo CYP2D6 enzyme, luciferin luminescence, 1 h; series mostly up to 57.4 µM
# Sequence of UniProt P10635 (P10635 whole entry, looked up): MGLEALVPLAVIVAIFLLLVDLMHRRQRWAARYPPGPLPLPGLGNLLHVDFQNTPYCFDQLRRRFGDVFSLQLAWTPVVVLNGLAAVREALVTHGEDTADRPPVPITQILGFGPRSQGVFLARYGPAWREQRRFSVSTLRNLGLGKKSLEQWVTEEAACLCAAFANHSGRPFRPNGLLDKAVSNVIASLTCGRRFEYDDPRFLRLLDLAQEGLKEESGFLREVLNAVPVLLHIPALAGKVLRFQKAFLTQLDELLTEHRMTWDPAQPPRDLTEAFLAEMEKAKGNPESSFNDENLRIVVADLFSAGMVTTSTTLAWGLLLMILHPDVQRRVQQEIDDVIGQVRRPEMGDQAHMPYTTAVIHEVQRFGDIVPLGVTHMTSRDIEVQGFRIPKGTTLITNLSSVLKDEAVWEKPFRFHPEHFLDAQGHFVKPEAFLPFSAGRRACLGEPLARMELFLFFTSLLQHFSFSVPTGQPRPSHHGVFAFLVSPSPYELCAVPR
# In short: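 P450-Glo luminescent screen: recombinant CYP2D6 enzyme–proluciferin substrate mix preincubated with compound 10 min at room temperature, then NADPH regeneration added for 1 h at room temperature. Detection reagent added for 20 min; luciferin light read as relative luminescence units.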
# [7] = biological target: Calcium and integrin-binding protein 1 (Homo sapiens) (UniProt Q99828); test: Primary qHTS for Identification of Calcium Integrin Binding Protein 1 (CIB1) Competitor (AID 1508620); settings: CIB1-GST / FITC-alphaIIb peptide fluorescence polarization; series mostly up to 57.7 µM
# Sequence of UniProt Q99828 (Q99828 whole entry, looked up): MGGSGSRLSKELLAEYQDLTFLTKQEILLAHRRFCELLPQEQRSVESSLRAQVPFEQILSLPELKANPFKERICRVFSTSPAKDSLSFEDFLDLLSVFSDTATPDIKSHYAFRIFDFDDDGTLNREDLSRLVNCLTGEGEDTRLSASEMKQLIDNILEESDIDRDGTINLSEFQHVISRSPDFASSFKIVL
# In short: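 CIB1-GST (1 uM final) and compound incubated 15 min at room temperature before adding FITC-alphaIIb peptide tracer (100 nM final). Competition for binding read by fluorescence polarization (ex 480, em 540) after another 15 min at room temperature.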
# [8] = biological target: Cytochrome P450 3A4 (Homo sapiens) (UniProt P08684); test: Cytochrome P450 family 3 subfamily A member 4 (CYP3A4) small molecule antagonists: luciferase qHTS assay (AID 1645841; active means well fitted curve in the direction sought with a large enough effect in the repeat runs; inconclusive means weak or mixed curves; inactive means no such curve, though single readings can be large; an effect the other way counts as inactive or inconclusive; further: nearly all actives have a fitted effect of over 45% in size); settings: P450-Glo CYP3A4 enzyme assay, luciferin luminescence; series mostly up to 57.4 µM
# Sequence of UniProt P08684 (P08684 whole entry, looked up): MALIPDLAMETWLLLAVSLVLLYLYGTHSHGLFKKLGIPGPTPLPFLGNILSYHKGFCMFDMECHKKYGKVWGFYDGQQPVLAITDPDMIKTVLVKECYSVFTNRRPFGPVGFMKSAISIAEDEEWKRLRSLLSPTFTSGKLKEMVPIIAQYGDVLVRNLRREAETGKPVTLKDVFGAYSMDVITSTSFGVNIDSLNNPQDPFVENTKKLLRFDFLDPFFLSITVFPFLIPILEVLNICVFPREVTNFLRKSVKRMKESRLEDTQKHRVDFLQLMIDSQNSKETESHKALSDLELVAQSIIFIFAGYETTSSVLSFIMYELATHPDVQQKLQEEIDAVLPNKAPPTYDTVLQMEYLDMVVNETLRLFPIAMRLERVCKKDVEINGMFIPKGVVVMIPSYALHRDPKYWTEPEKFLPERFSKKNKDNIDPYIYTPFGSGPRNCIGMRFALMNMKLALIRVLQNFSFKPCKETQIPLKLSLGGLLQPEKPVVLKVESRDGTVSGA
# In short: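 Luminescent CYP3A4 activity readout: compounds plus enzyme-substrate mix 10 min at room temperature, reaction started with NADPH regenerating system for 1 h, stopped with detection reagent, read after 20 min. Ketoconazole served as control.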
# Potency means the concentration at half of the fitted maximal effect; tags describe the fitted curve by direction and shape.
smiles,measurement,setting,value
O=C(/C=C/c1ccc(O)cc1)c1ccc(O)cc1O,Potency,[1],"inconclusive: 50.1 µM [inhibitor, single point]"
same,Potency,[2],"inconclusive: 20 µM [cytotoxic, partial curve]"
same,Potency,[3],"inconclusive: 2 µM [inhibitor, full curve]"
CN1CCN(C2Cc3ccccc3Sc3ccc(Cl)cc32)CC1 (stereo unspecified),Potency,[4],"inconclusive: 0.562 µM [inhibitor, full curve, poor fit]"
same,Potency,[1],active: 17.8 µM
same,Potency,[2],"inconclusive: 25.1 µM [cytotoxic, partial curve]"
same,Potency,[3],"inconclusive: 35.5 µM [inhibitor, partial curve, poor fit] and inconclusive: 8.91 µM [inhibitor, partial curve, poor fit]"
same,Potency,[5],"inconclusive: 11.2 µM [inhibitor, partial curve, poor fit]"
same,Potency,[6],active: 0.121 µM
CS(=O)(=O)CCNCc1ccc(-c2ccc3ncnc(Nc4ccc(OCc5cccc(F)c5)c(Cl)c4)c3c2)o1,Potency,[4],"inconclusive: 25.1 µM [inhibitor, partial curve, poor fit]"
same,Potency,[1],inactive
same,Potency,[2],"inconclusive: 12.6 µM [cytotoxic, partial curve]"
same,Potency,[3],"inconclusive: 10 µM [inhibitor, partial curve, poor fit]"
same,Potency,[5],"inconclusive: 11.2 µM [inhibitor, partial curve, poor fit]"
CNCC[C@H](Oc1cccc2ccccc12)c1cccs1,Potency,[1],inactive
same,Potency,[2],"inconclusive: 15.8 µM [cytotoxic, partial curve, poor fit]"
same,Potency,[5],"inconclusive: 10 µM [inhibitor, partial curve]"
CN(C)c1ccc(N=NS(=O)(=O)O)cc1,Potency,[4],"inconclusive: 25.1 µM [inhibitor, full curve]"
same,Potency,[1],inactive
same,max response,[2],inactive: 4.58%
same,Potency,[3],"inconclusive: 10 µM [inhibitor, partial curve, poor fit]"
same,Potency,[5],"inconclusive: 7.94 µM [inhibitor, partial curve, poor fit]"
S=C(Nc1ccccc1)Nc1nccs1,Potency,[1],"inconclusive: 39.8 µM [inhibitor, partial curve, poor fit]"
same,max response,[2],inactive: -3.94%
same,Potency,[3],"inconclusive: 28.2 µM [inhibitor, single point]"
CN1CCC(=C2c3ccccc3CCc3sccc32)CC1,Potency,[1],active: 25.1 µM
same,Potency,[2],"inconclusive: 7.94 µM [cytotoxic, full curve]"
same,Potency,[3],"inconclusive: 29.8 µM [inhibitor, single point] and inconclusive: 8.91 µM [inhibitor, partial curve, poor fit]"
same,Potency,[5],"inconclusive: 10 µM [inhibitor, partial curve]"
O=C(O)Cc1ccc2c(c1)C(=O)c1ccccc1CO2,Potency,[1],inactive
same,max response,[2],inactive: 16.2%
same,Potency,[3],"inconclusive: 10 µM [inhibitor, partial curve, poor fit]"
CCN(CC)c1ccc(C(=C2C=CC(=[N+](CC)CC)C=C2)c2cc(S(=O)(=O)O)ccc2S(=O)(=O)[O-])cc1,Potency,[4],"inconclusive: 5.62 µM [inhibitor, partial curve]"
same,Potency,[1],"inconclusive: 44.7 µM [inhibitor, partial curve, poor fit]"
same,Potency,[2],"inconclusive: 12.6 µM [cytotoxic, partial curve]"
same,Potency,[3],"inconclusive: 10 µM [inhibitor, partial curve, poor fit]"
Nc1ccc(-c2ccc3ccccc3n2)cc1,Potency,[1],"inconclusive: 8.91 µM [inhibitor, full curve]"
same,max response,[2],inactive: -7.29%
same,Potency,[3],"inconclusive: 7.94 µM [inhibitor, partial curve, poor fit]"
CC(C)(C)c1ccc(O)c(O)c1,Potency,[1],"inconclusive: 35.5 µM [inhibitor, partial curve]"
same,Potency,[2],"inconclusive: 39.8 µM [cytotoxic, partial curve]"
same,Potency,[3],"inconclusive: 20 µM [inhibitor, partial curve, poor fit]"
same,Potency,[5],active: 31.6 µM
same,Potency,[6],inconclusive: 20 µM [inhibitor]
COc1cc2c(cc1OC)CN(CCc1ccc(NC(=O)c3cc(OC)c(OC)cc3NC(=O)c3cnc4ccccc4c3)cc1)CC2,Potency,[7],"inconclusive: 42.9 µM [inhibitor, partial curve, poor fit]"
same,Potency,[6],"inconclusive: 10.7 µM [inhibitor, partial curve, poor fit]"
Nc1ccc(N=Nc2ccccc2)c(N)n1,Potency,[7],"inconclusive: 79.4 µM [inhibitor, partial curve, poor fit]"
same,Potency,[5],"inconclusive: 11.2 µM [inhibitor, single point]"
O=C(CS)Nc1ccccc1,Potency,[7],"inconclusive: 89.1 µM [inhibitor, single point]"
same,Potency,[5],"inconclusive: 35.5 µM [inhibitor, single point]"
same,Potency,[6],"inconclusive: 30.9 µM [inhibitor, single point]"
Cc1c(C(=O)O)c(O)cc2c1C(=O)c1c(O)c([C@@H]3O[C@H](CO)[C@@H](O)[C@H](O)[C@H]3O)c(O)c(O)c1C2=O,Potency,[4],"inconclusive: 3.98 µM [inhibitor, full curve]"
same,Potency,[2],"inconclusive: 0.1 µM [rising, full curve, poor fit]"
same,Potency,[3],"inconclusive: 8.91 µM [inhibitor, partial curve, poor fit]"
CN(C)[C@@H]1C(=O)C(C(=O)NCN2CCCC2)=C(O)[C@@]2(O)C(=O)C3=C(O)c4c(O)cccc4[C@@](C)(O)C3C[C@@H]12 (stereo partly specified),Potency,[7],"inconclusive: 56.2 µM [inhibitor, partial curve, poor fit]"
same,Potency,[6],"inconclusive: 11 µM [inhibitor, partial curve]"
NC(=O)N/N=C/c1ccc([N+](=O)[O-])o1,Potency,[7],"inconclusive: 112 µM [inhibitor, partial curve, poor fit]"
same,Potency,[6],"inconclusive: 15.5 µM [inhibitor, partial curve]"
CCCCCCCCCCCCCCCC(=O)NCCO,Potency,[1],"inconclusive: 2.82 µM [inhibitor, full curve]"
same,Potency,[2],"inconclusive: 1.12 µM [rising, full curve]"
same,Potency,[3],"inconclusive: 4.47 µM [inhibitor, full curve, poor fit]"
Oc1ccc(O)cc1,Potency,[4],inactive
same,Potency,[1],"inconclusive: 15.8 µM [inhibitor, full curve] and inconclusive: 15.8 µM [inhibitor, partial curve]"
same,Potency,[2],"inconclusive: 0.199 µM [rising, full curve, poor fit]"
same,max response,[2],inactive: -23.4%
same,Potency,[3],"inconclusive: 31.6 µM [inhibitor, partial curve, poor fit] and inconclusive: 10 µM [inhibitor, partial curve, poor fit]"
same,Potency,[5],"inconclusive: 7.94 µM [inhibitor, partial curve, poor fit]"
same,Potency,[6],"inconclusive: 43.6 µM [inhibitor, partial curve, poor fit]"
O=C1c2ccccc2-[n+]2ccc3c([nH]c4ccccc43)c21,Potency,[4],active: 2 µM
same,Potency,[2],active: 1 µM
same,Potency,[3],active: 10.6 µM
CCc1cccc(N(C)C(N)=Nc2cccc3ccccc23)c1,Potency,[4],"inconclusive: 50.1 µM [inhibitor, partial curve, poor fit] and active: 39.8 µM"
same,Potency,[1],"active: 15.8 µM and inconclusive: 7.08 µM [inhibitor, full curve]"
same,Potency,[2],"inconclusive: 12.6 µM [cytotoxic, full curve]"
same,max response,[2],inactive: -28.6%
same,Potency,[3],"inconclusive: 10 µM [inhibitor, partial curve, poor fit] and inconclusive: 3.98 µM [inhibitor, partial curve, poor fit]"
same,Potency,[5],"inconclusive: 11.2 µM [inhibitor, partial curve, poor fit]"
OC(CN1CCC(Cc2ccc(F)cc2)CC1)c1ccc(Cl)cc1 (stereo unspecified),Potency,[4],active: 17.8 µM
same,Potency,[1],"inconclusive: 14.1 µM [inhibitor, full curve]"
same,max response,[2],inactive: -25.9%
same,Potency,[3],"inconclusive: 31.6 µM [inhibitor, single point]"
Nc1cc(-c2ccncc2)c[nH]c1=O,Potency,[7],"inconclusive: 50.1 µM [inhibitor, partial curve]"
same,Potency,[5],inactive
Nc1ccc([N+](=O)[O-])cc1O,Potency,[4],"inconclusive: 2.24 µM [inhibitor, full curve]"
same,Potency,[1],"inconclusive: 5.62 µM [inhibitor, full curve]"
same,Potency,[2],"inconclusive: 0.355 µM [rising, full curve, poor fit]"
same,Potency,[3],"inconclusive: 0.355 µM [inhibitor, full curve]"
same,Potency,[5],"inconclusive: 4.47 µM [inhibitor, full curve, poor fit]"
same,Potency,[6],"inconclusive: 89.4 µM [inhibitor, partial curve, poor fit]"
same,Potency,[8],inconclusive: 37.7 µM
CN(C(Cc1ccc(OS(=O)(=O)c2cccc3cnccc23)cc1)C(=O)N1CCN(c2ccccc2)CC1)S(=O)(=O)c1cccc2cnccc12 (stereo unspecified),Potency,[1],"inconclusive: 7.94 µM [inhibitor, full curve, poor fit] and inactive"
same,Potency,[3],"active: 11.9 µM and inconclusive: 7.94 µM [inhibitor, partial curve, poor fit]"
NCCO,Potency,[1],"inconclusive: 112 µM [inhibitor, single point]"
same,Potency,[2],"inconclusive: 0.562 µM [rising, full curve]"
same,Potency,[3],"inconclusive: 3.55 µM [inhibitor, full curve, poor fit]"
same,Potency,[6],inactive
